# Assay results taken from PubChem BioAssay AID1477 (National Center for Advancing Translational Sciences (NCATS), 2009).
# Among all 230,000 compounds or so, fewer than 10 were called active. This list was built around the results that the source calls inconclusive (neither active nor inactive); the mix of calls is not that of the screen. The call rests on the fitted dose curve; in most records, active means well fitted curve in the direction sought with a large enough effect; inconclusive means small, poorly fitted or top-dose-only effect, or effect the other way, or another doubt; inactive means no such curve, though single readings can be large or run the other way. No potency is given beside an inconclusive call; the fits are too rough.
# Molecular target: Runt-related transcription factor 1 (Homo sapiens) + Core-binding factor subunit beta (Homo sapiens) (UniProt Q01196+Q13951)
# Assay: qHTS Assay for Compounds Blocking the Interaction Between CBF-beta and RUNX1 for the Treatment of Acute Myeloid Leukemia; on activity, negative = inhibition: % of control where 0% means no effect
# Settings: AlphaScreen CBFb-His/RUNX1-biotin binding, biochemical; activity, negative = inhibition: at 59.8 µM (top of the series) unless noted
# In short: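 AlphaScreen proximity signal reports loss of binding between His-tagged CBF-beta and biotin-labelled RUNX1, each at 30 nM. Proteins are pre-associated for 20 minutes, compounds added for 15 minutes, then beads for 90 minutes, all at ambient temperature.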
# Sequence of UniProt Q01196 (Q01196 whole entry, looked up): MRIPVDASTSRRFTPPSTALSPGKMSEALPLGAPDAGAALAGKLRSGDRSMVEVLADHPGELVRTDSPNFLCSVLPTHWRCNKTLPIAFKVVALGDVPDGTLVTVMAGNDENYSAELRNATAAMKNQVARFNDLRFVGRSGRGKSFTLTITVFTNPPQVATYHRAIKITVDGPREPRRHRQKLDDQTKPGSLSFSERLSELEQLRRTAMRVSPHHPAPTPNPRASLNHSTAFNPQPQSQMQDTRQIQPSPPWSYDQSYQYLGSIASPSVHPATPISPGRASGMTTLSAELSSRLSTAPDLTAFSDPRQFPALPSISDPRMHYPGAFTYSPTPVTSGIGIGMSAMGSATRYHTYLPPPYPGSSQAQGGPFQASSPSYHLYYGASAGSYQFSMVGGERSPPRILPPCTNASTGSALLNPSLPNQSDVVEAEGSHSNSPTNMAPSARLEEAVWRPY
# Sequence of UniProt Q01196 (Q13951 whole entry, looked up): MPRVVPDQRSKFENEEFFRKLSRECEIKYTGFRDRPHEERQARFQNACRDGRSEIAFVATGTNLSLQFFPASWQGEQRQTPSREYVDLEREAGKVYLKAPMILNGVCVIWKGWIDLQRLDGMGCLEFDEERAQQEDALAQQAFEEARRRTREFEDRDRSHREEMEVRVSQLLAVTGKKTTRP
SMILES,"activity, negative = inhibition",Potency
c1ccc(CN2CCN(c3nc(NCc4ccco4)c4ccccc4n3)CC2)cc1,inactive: -2.62%,
O=C(Nc1nc(-c2ccccc2)cs1)c1ccc(N2CCOCC2)c([N+](=O)[O-])c1,,"inconclusive [inhibitor, partial curve]"
CC1=C(C(=O)Nc2ccccc2)C(c2cccs2)n2nnnc2N1 (stereo not given),,"inconclusive [inhibitor, single point]"
Cc1ccc(S(=O)(=O)N2CCc3nc(COc4ccccc4)c4c(c3C2)CO[C@@H](C)C4)cc1,inactive: 0.115% [at 13.1 µM],
CC(Sc1nc(-c2ccccc2)cs1)C(=O)Nc1ccc(Cl)cn1 (stereo not given),,"inconclusive [activator, single point]"
CCC(C)Nc1ccc(NC(C)CC)cc1 (stereo not given),,"inconclusive [inhibitor, single point]"
O=C(O)c1cccc([N+](=O)[O-])c1,inactive: -2.12% [at 21.7 µM],
O=C(c1ccc2snnc2c1)N1CCSCC1,,"inconclusive [inhibitor, single point]"
Cc1ccc(C(=O)CSc2nnnn2C(C)C)c(C)c1,inactive: 11.8%,
CC[N+](CC)(CC)CC(=O)Nc1ccc(SC(F)F)cc1,inactive: 11.6%,
COc1ccc(OC)c(-c2csc(NC(=O)CSc3ccc([N+](=O)[O-])cc3)n2)c1,,"inconclusive [inhibitor, partial curve]"
O=[N+]([O-])c1cc([N+](=O)[O-])c2c(=Nc3ccccc3)n(-c3ccccc3)n(O)c2c1,,"inconclusive [inhibitor, partial curve]"
CCOC(=O)c1ccc(NCc2ccc(N(C)C)cc2)cc1,,"inconclusive [inhibitor, single point]"
O=C(CSCc1ccc(Cl)cc1)Nc1ccc(S(=O)(=O)N2CCOCC2)cc1,inactive: -1.25%,
CCN(CCO)c1nc(SC)nc2c1sc1nc(-c3ccco3)c3c(c12)CCC3,,"inconclusive [inhibitor, single point]"
O=C(CSc1nnc(-c2c[nH]c3ccccc23)o1)N(Cc1ccccc1)c1ccc(F)cc1,inactive: -0.772%,
Cc1c(Cl)cnc(NC(=O)COC(=O)c2cccc(S(=O)(=O)N3CCc4ccccc4C3)c2)c1Cl,,"inconclusive [inhibitor, single point]"
COc1ccc(C2=NN(C(N)=S)C(c3ccco3)C2)cc1 (stereo not given),inactive: -20.3%,
C[C@H](CO)NC(=O)[C@@H]1C[C@H]1[C@@H](NP(=O)(c1ccccc1)c1ccccc1)c1ccccc1,,"inconclusive [inhibitor, single point]"
O=C(Nc1sc2c(c1C(=O)O)CCCC2)c1cccs1,inactive: -4.23%,
